The experiment has as its system NCI-H322M lung. Put plainly: NCI tumour cell line growth inhibition, 48 h.

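Following 48 hours of exposure in 96-well plates, responses at five concentrations were used to interpolate endpoints linearly. GI50 = concentration required for 50% inhibition of growth. TGI denotes the concentration required for complete inhibition of growth.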 Numbered stars: 1 amine (or outer) side, 2 acyl side, 3 side chain; on linkers, the order of the positions; unused ones are H or OH. Bridge positions count the residues as written; N and C are the ends. Square brackets hold non-standard residues; d marks the D form. Peptide text beside a SMILES is read from it. * marks the point of attachment. Phe(3-Me) = Cc1cccc(C[C@H](N)C(=O)O)c1; NH(4-Cl-2-F-phenyl) = Fc1cc(Cl)ccc1N*; Pro(4R-Me) = C[C@H]1CN[C@H](C(=O)O)C1; Propanoyl(3-NMe2) = CN(C)CCC(=O)*; Hyp = O=C(O)[C@@H]1C[C@@H](O)CN1; aThr = C[C@H](O)[C@H](N)C(=O)O; Pip = O=C(O)[C@@H]1CCCCN1; CO = O=C([*:1])[*:2]

Consider `CCCN1CCN(c2ccc3nc(-c4ccc5nc(-c6ccc(OCC)c(OCC)c6)[nH]c5c4)[nH]c3c2)CC1`, for which the GI50 is 0.818 µM and the TGI turned out to be 2.57 µM.

Regarding `CC(=O)OCC1OC(n2c(-c3ccccc3)c(C)c(C)c(C#N)c2=S)C(OC(C)=O)C(OC(C)=O)C1OC(C)=O` (stereo not drawn), the TGI was more than 100 µM.

On to `CC/C=C\C/C=C\C[C@H]1C/C=C2/C(=O)C=C[C@H]2C/C=C\CCC(=O)O1`, for which the GI50 is 4.37 µM and the TGI was more than 14.3 µM.

As to `CCOP(=O)(OCC)/C(C#N)=C/c1c(C)[nH]c2ccccc12`, the TGI is more than 100 µM.

On to `CCN(CC(COc1ccc2c(c1)[n+]([O-])nc(N)[n+]2[O-])OC(C)=O)C(C)=O` (stereo not drawn), for which the TGI is more than 100 µM.

As for `O=C(O)/C=C\C(=O)Nc1ccc2c(c1)C(=O)c1cc(F)ccc1-2`, the TGI was more than 100 µM.

Take `COc1cc2c(cc1OC)C(Cc1c3ccccc3cc3ccccc13)N(C)CC2` (stereo not drawn): the TGI came out at 59.8 µM.

Consider `Cc1ccc(C2=C(c3ccccc3)C(O)(c3ccc(C)cc3)C(c3ccccc3)=C2c2ccc(C)cc2)cc1`, for which the TGI is more than 100 µM.

For the compound `c1ccc(C2N3CCCCC3[C@@H]3c4[nH]c5ccccc5c4CCN23)cc1` (stereo partly drawn), the TGI was more than 100 µM.

For the compound `C/C(=N\NC(=O)c1ccncc1)c1ccc(O)cc1O`, the GI50 is 1.4 µM and the TGI came to 45.7 µM.

`CC(=O)NC(CCCCNC(=O)N(C)N=O)C(=O)NCc1ccccc1` (stereo not drawn) returned a TGI of more than 100 µM.

`COC(=O)C(Cc1nc2ccccc2[nH]c1=O)C(=O)C(=O)Nc1ccc(OC)cc1[N+](=O)[O-]` (stereo not drawn) had a TGI of more than 100 µM.

Compound `COc1cc(C=O)c(-c2cc3c(cc2C=O)OCO3)c(OC)c1OC` yielded a TGI of more than 290 µM.

In the case of `O=c1cccc(C#CC#C/C=C/CO)o1`, the GI50 was 2.89 µM and the TGI was found to be 7.56 µM.

For `Cc1cc(NCCCCCCNc2cc(C)nc3ccc(Cl)cc23)c2cc(Cl)ccc2n1`, the TGI was more than 100 µM.

Consider `COc1ccc(/C=C/C(=O)c2ccc(Nc3ccnc4cc(Cl)ccc34)cc2)cc1`, for which the GI50 is more than 100 µM and the TGI was more than 100 µM.

The compound `COc1ccc(-c2coc3cc(OC)cc(O)c3c2=O)cc1` showed a TGI of more than 100 µM.

Turning to `Cc1cccc(C[C@H](NC(=O)Nc2ccc(Cl)cc2F)C(=O)N[C@@H]2C(=O)N3C[C@H](OC(=O)CCN(C)C)C[C@H]3C(=O)N3CCCC[C@H]3C(=O)N[C@@H](C)C(=O)N3C[C@H](C)C[C@H]3C(=O)O[C@H]2C)c1` ({NH(4-Cl-2-F-phenyl)-CO}-[Phe(3-Me)][aThr][Hyp](Propanoyl(3-NMe2))[Pip]A[Pro(4R-Me)]; ester 2-C), the GI50 was 0.958 µM and the TGI turned out to be 5.42 µM.

`O=C1c2ccccc2C(=O)c2c1ccc1c2OCO1`: the TGI is more than 100 µM.

For `COc1cc2c3c(n(CCCCl)c(=O)c2cc1OC)-c1ccc(C#N)cc1C3=O`, the GI50 is 69.5 µM and the TGI was more than 100 µM.

In the case of `CC(C)[C@@H]1CC[C@@H]2[C@@H]1[C@H](OC(=O)/C=C/c1ccccc1)[C@]1(C(C)C)C[C@@H](OC(=O)CO)[C@@]2(C)O1`, the GI50 is 5.9 µM and the TGI came out at 10.7 µM.

`Cn1cnc([N+](=O)[O-])c1Sc1nc(N)nc2c1ncn2Cc1ccccc1` yielded a TGI of 62.9 µM.

Compound `c1ccc2c(c1)C(=Nc1ccc(N=C3c4ccccc4-c4ccccc43)cc1)c1ccccc1-2` gave a TGI of more than 100 µM.

Compound `CC(=O)OC1COC(Nn2c(=O)[nH]c3ccccc3c2=O)C(OC(C)=O)C1OC(C)=O` (stereo not drawn) returned a TGI of more than 100 µM.

As for `O=C(/C(=C/c1cccs1)c1ccccc1)c1ccccc1`, the TGI is more than 100 µM.

For the compound `Cc1nn(C)c2c1C(=O)N(C)CC(=O)N2C`, the TGI was more than 100 µM.

For the compound `CN1CCCN(C(c2ccccc2)c2ccc(Br)cc2)CC1` (stereo not drawn), the GI50 was 3.67 µM and the TGI was 22 µM.

In turn, `CC1=C(C(=O)Nc2ccccc2C)C(c2ccc(C3C(C(=O)Nc4ccccc4C)=CNC=C3C(=O)Nc3ccccc3C)cc2)C(C(=O)Nc2ccccc2C)=C(C)N1` had a TGI of 32.2 µM.

`CC(C)(C)NC1C2CCC(C)(C1O)C2(C)C` (stereo not drawn): the TGI is more than 100 µM.

For `O=c1[nH]c(=O)n(C2CC(O)C(CO)O2)cc1C#Cc1cc(F)cc(F)c1` (stereo not drawn), the TGI is more than 100 µM.

Regarding `COc1ccc(Cn2c(Br)c3c(c2-c2cc(OC)c(OC)c(OC)c2)CCc2sc(NC(C)=O)nc2-3)cc1`, the GI50 is 8.08 µM and the TGI is more than 100 µM.

Regarding `Oc1cc2c(cc1O)-c1[nH]ncc1CC2`, the TGI is more than 100 µM.

In the case of `CCOC(=O)/C=C/c1ccccn1`, the TGI was more than 100 µM.

As to `COc1cc2c(cc1O)C(C)Cc1cc3c(cc1N(C)CC2)OCO3` (stereo not drawn), the TGI was more than 58.6 µM.

Take `CCc1n[nH]c(=O)n1NC(=O)/C=C\C(=O)O`: the TGI is more than 100 µM.

Take `O=C(O)C1OC(Oc2cc(O)c3c(=O)cc(-c4ccc(O)cc4)oc3c2)C(O)C(O)C1O` (stereo not drawn): the TGI is more than 100 µM.

As to `O=C(O)c1cc(Sc2ccc([N+](=O)[O-])c(C(=O)O)c2)ccc1[N+](=O)[O-]`, the TGI is more than 100 µM.

`Nc1nc2c(c3cnccc13)C(c1cccc(Cl)c1)Cc1cnccc1-2` (stereo not drawn): the GI50 was 0.609 µM and the TGI turned out to be 18.5 µM.

As for `Nc1ccc(N)c2c1C(=O)c1c(N)ccc(N)c1C2=O`, the TGI was more than 100 µM.

Consider `CSc1ccc2c(cc1=O)[C@@H](NC(=O)c1ccc(F)cc1)CCc1cc(O)c(O)c(O)c1-2`, for which the TGI is more than 100 µM.

`CC(C)(O)[C@H](CCO)O[Si](c1ccccc1)(c1ccccc1)C(C)(C)C` registered a TGI of 30.3 µM.

Regarding `CSc1nc2c(c(=O)[nH]1)C(c1ccc(Cl)cc1)C1=C(N2)/C(=C/c2ccc(Cl)cc2)CNC1` (stereo not drawn), the GI50 was 3.2 µM and the TGI is 12.3 µM.

Regarding `CC[C@@]1(O)C(=O)OCc2c1cc1n(c2=O)Cc2c-1nc1ccccc1c2/C=N/OC(C)(C)C`, the GI50 is 0.043 µM and the TGI worked out at 8.36 µM.

As for `C[C@@H]1OC(=O)/C(=C\N(C)C)[C@H]2CC(=O)N(CCc3cn(S(=O)(=O)C(F)(F)F)c4ccccc34)C[C@H]12`, the TGI is more than 100 µM.

Turning to `Cc1nn(-c2ccc(Br)cc2)c(C)c1CC(=O)c1cc(O)ccc1O`, the GI50 is 9.47 µM and the TGI is 45.2 µM.

For `COc1ccc([C@@H]2CC(=O)NCCCCNCCCN2)cc1`, the TGI is more than 100 µM.

In turn, `CC1(C)OC(=O)C(=C2CC(c3ccccc3)c3ccccc32)C(=O)O1` (stereo not drawn) showed a TGI of more than 100 µM.

The compound `Cc1cc2[nH]c3c(C#N)c(-c4ccccc4)c(CN4CCOCC4)c(=O)n3c2cc1C` had a TGI of more than 100 µM.

For the compound `COc1cccc(-n2c(N)c(-c3nc4cc(C(F)(F)F)ccc4s3)c3ccc([N+](=O)[O-])cc3c2=O)c1`, the TGI was more than 100 µM.

For `O=C1NN(c2ccccc2)C(=O)C2C3c4ccccc4C(c4ccccc43)C12` (stereo not drawn), the TGI was more than 100 µM.

In turn, `CCNCCCCNCC` displayed a TGI of more than 3750 µM.

`CC(NC(=O)C(N)CC(=O)O)NC(=O)N1CCCC1` (stereo not drawn) yielded a TGI of more than 100 µM.

With `O=CC1(C2(C=O)c3ccccc3-c3ccccc32)c2ccccc2-c2ccccc21`, the GI50 was 3.52 µM and the TGI was determined as 7.92 µM.

`CC1(C)OC(=S)N(c2ccccc2)C12C=Cc1cc3ccccc3cc1O2` (stereo not drawn) displayed a TGI of more than 100 µM.

On to `COc1cc([C@@H]2c3cc4c(c(O)c3C[C@H]3COC(=O)[C@@H]32)OCO4)cc(OC)c1O`, for which the GI50 is 0.00887 µM and the TGI was more than 200 µM.

Consider `NC[C@@](O)(c1ccc(Cl)cc1)c1ccc(-c2cn[nH]c2)cc1`, for which the GI50 is 1.08 µM and the TGI is 6.03 µM.

As to `O=C(c1ccc2c3c(ccc(C(=O)C(F)(F)F)c13)CC2)C(F)(F)F`, the TGI is more than 100 µM.

On to `COc1ccc(Nc2ncccc2C(=O)NCc2cn(Cc3cccc(Oc4ccccc4)c3)nn2)cc1`, for which the GI50 was 5.24 µM and the TGI was more than 100 µM.

Compound `CCNCCNC(=O)c1ccc(Br)cc1` registered a TGI of more than 100 µM.

`Nc1c(C(=O)Nc2ccccc2)sc2nc3c(cc12)CCCC3`: the GI50 is 8.97 µM and the TGI was more than 100 µM.

With `CC1=C(c2cc(C(=O)Nc3nccs3)nc(NC#N)n2)Sc2ccccc2N1`, the TGI is more than 100 µM.

Turning to `N=c1ccn2c(n1)O[C@@H]1[C@@H](O)[C@H](CO)O[C@@H]12`, the GI50 was 9.11 µM and the TGI was more than 100 µM.

`COC(=O)c1scc(N)c1-n1ccc(=O)[nH]c1=O` showed a TGI of more than 100 µM.

`CC(C)Oc1ccc(C(=O)N[C@H](CNC(=O)CN(C)C)Cc2ccc(-c3cn4cccc([C@H](C)O)c4n3)cc2)cc1Cl`: the GI50 is 0.0511 µM and the TGI stood at 20.1 µM.

With `CC1(C)C2CCC1(CC(=O)O)C(Cl)C2` (stereo not drawn), the TGI is more than 100 µM.

`S=C1SC(c2ccc(Cl)cc2)(c2ccc(Cl)cc2)c2ccccc21` returned a TGI of more than 100 µM.

In the case of `CCCCCCCCCCCCP(=O)(O)OCC(N)C(=O)O` (stereo not drawn), the TGI came to 55.6 µM.

For `N/N=C(\C(=O)Nc1ccc([N+](=O)[O-])cc1)C(C1=Nc2cc([N+](=O)[O-])ccc2NC1)[N+](=O)[O-]` (stereo not drawn), the TGI is more than 100 µM.

In the case of `CC1(C)CC[C@]2(C(=O)O)CC[C@]3(C)C(=CC[C@@H]4[C@@]5(C)CC[C@H](OC6OC(CO)C(O)C(O)C6OC6OC(CO)C(O)C(O)C6O)C(C)(C)[C@@H]5CC[C@]43C)[C@@H]2C1` (stereo partly drawn), the TGI was determined as 28 µM.

For `COc1cc2c3c(c4c5ccccc5[nH]c4c2c(OC)c1OC)C(=O)N(CCN1CCCCC1)C3=O`, the GI50 is 0.712 µM and the TGI came out at 2.9 µM.

For `CC[C@@]1(O)C(=O)OCc2c1cc1n(c2=O)Cc2c-1nc1ccccc1c2/C=N\NC(=O)C(C)N` (stereo partly drawn), the TGI is more than 43.7 µM.

The compound `Cc1nc(C)c(N2CCN(C#N)CC2)c(=O)[nH]1` yielded a TGI of more than 100 µM.

In turn, `Cc1cc(C#N)c(Nc2c(C)cccc2[N+](=O)[O-])s1` displayed a TGI of more than 100 µM.

Regarding `CCOP(C)(=O)C(Nc1ccc(F)cc1)c1ccc(F)cc1` (stereo not drawn), the TGI is more than 100 µM.

For the compound `C=C1N(C)c2ccc(Cl)cc2C1(C)C`, the GI50 was 22.5 µM and the TGI was more than 100 µM.

Values taken from PubChem BioAssay (NCI).
